# Source: PMC12040169 (PLOS Biology, 2025)
# The other results are listed elsewhere or left out.
# Test system: T1, C. trachomatis L2/434/Bu expressing GFP (CTL2-GFP)
# T1 construct: L2/434/Bu GFP intracellular growth in HeLa cells
# Design: species or system HeLa; C. trachomatis total inclusion area by high-content imaging, normalised to DMSO
# Details: total inclusion area; 28.5 h, 10 µM; inhibitor
# Summary of the method: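 High-content imaging followed the bulk GFP/resorufin measurement: fixed, Hoechst-stained cells were scored for GFP inclusions and host nuclei per well. Total inclusion area and count served as growth proxies, nuclei number as the viability proxy. MIC calculation matched the bulk assay.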
row,SMILES,% of control remaining
1,CCn1c(SCC(=O)NC2CC2)nc2ccccc21 [CBK305864],65.9071
2,O=S(=O)(N1CCNCC1)N1CCOCC1 [CBK267467],104.783
3,O=C(NC1CCCCC1)C1CCC1 [CBK011511],59.46
4,Cn1c(=O)c2c(ncn2Cc2ccccc2)n(C)c1=O [CBK133402],38.5059
5,O=C1COc2ccccc2CCCC[C@@H]2CN(C(=O)Cn3ccc(=O)[nH]c3=O)CC[C@H]2N1 [CBK292048],148.088
6,COCC(=O)NC1CCN(CC2(c3ccc(F)cc3)CCCC2)CC1 [CBK285387],79.1019
7,Cc1ccc(-c2nc3ncc(C#N)c(N)n3n2)cc1 [CBK288153],95.2509
8,COc1ccc(CN2CC[C@H]3NC(=O)CNC(=O)C4(C/C=C/C[C@H]3C2)CCN(C(C)=O)CC4)cc1 [CBK292013],92.8929
9,CC(C)CCN1CCC2CN(CCCC(c3ccc(F)cc3)c3ccc(F)cc3)CCN2C1=O (stereo not shown) [CBK024898C],77.0838
10,COc1cc(-c2nccnc2NCCCO)cc(OC)c1OC [CBK037274],81.4732
11,CN(C1CCCCC1)C1CCN(CCc2ccccc2)CC1 [CBK261918],72.9586
12,O=C(CCCOc1ccc(Cl)cc1Cl)Nc1ccc(O)cc1C(=O)O [CBK131688],122.963
13,CS(=O)(=O)N1CCN(c2ccc(NC(=O)COc3ccc4ccccc4c3)cc2)CC1 [CBK266450],124.938
14,Oc1ccc(-c2cncc(Nc3ccc(Br)c(Cl)c3)n2)cc1 [CBK107806],66.3902
15,O=C(CN1C(=O)c2ccccc2C1=O)Nc1cccc(-c2cnc3ccccc3n2)c1 [CBK268614],88.5351
16,O=c1[nH]c(=S)[nH]c2c1CCC2 [CBK113252],96.4307
17,COc1ccc(S(=O)(=O)N(CC(=O)Nc2cccnc2)c2ccc(F)cc2)cc1 [CBK268445],104.898
18,CN(C)c1ccc(NC(=O)CN2C(=O)[C@H]3CCCN3c3ncccc32)cc1 [CBK286202],150.78
19,COc1ccc(-c2ccc(CN(Cc3ccc4c(c3)OCO4)CC(C)O)cc2)cc1 (stereo not shown) [CBK286470],77.5912
20,Cc1cc(NS(=O)(=O)c2cccc3cccnc23)n(C)n1 [CBK067242],94.4803
21,CCS(=O)(=O)N1CCN(S(=O)(=O)c2ccccc2[N+](=O)[O-])CC1 [CBK264289],128.113

row,SMILES,% of control remaining
1,O=C1NC2(CCCCC2)C(=O)N1c1ccc(F)cc1F [CBK281945],99.8757
2,CN1CCC2(CC1)OCc1cc(-c3cccnc3)ccc1O2 [CBK061020],85.6917
3,O=C1CC(c2ccccc2O)CC2=C1C=Nc1ccccc1N2 (stereo not shown) [CBK270287],61.5726
4,COCCNc1nc(-c2ccccc2CO)ccc1C(=O)NCCNC(C)=O [CBK076548],76.3085
5,O=C(NCc1ccccn1)c1cnn(-c2ccc(Cl)cc2)c1C(F)(F)F [CBK116637T],85.391
6,NC(=O)c1c(NC(=O)COc2ccc(Cl)cc2)sc2c1CCC2 [CBK262163],95.4704
7,FC(F)(F)c1nc2ccccc2nc1OCCN1CCNCC1 [CBK113302],88.3478
8,O=C(Cc1c[nH]c(=O)[nH]c1=O)N1CCCCC1c1nc2cc(F)ccc2[nH]1 (stereo not shown) [CBK291108],79.1418
9,Cc1cc2nc(COC(=O)N3CCOCC3)[nH]c2cc1C [CBK200144],69.6214
10,CC(=O)N1CCC(C(=O)N2CCC(C(=O)NC(c3ccccn3)c3cccs3)CC2)CC1 (stereo not shown) [CBK060118],89.1051
11,O=C(O)c1cc2ncc(-c3n[nH]cc3[N+](=O)[O-])cn2n1 [CBK269072],84.6075
12,CC(C)NC(=O)[C@H]1CN2CCC1C[C@@H]2Cn1cc(C2(O)CCCCC2)nn1 (stereo partly shown) [CBK288732],94.5641
13,O=C(Nc1ccccn1)C1CCCN1c1nc(O)cc(C(F)(F)F)n1 (stereo not shown) [CBK004254],109.04
14,O=C(Nc1cnc2ccccc2c1)OCCc1cccnc1 [CBK200126],78.0658
15,O=C1CN(C(=O)NCc2ccc(Cl)cc2)CCN1 [CBK155867],109.738
16,COc1ccc(CC(=O)Nc2ccc(S(=O)(=O)NC(C)C)cc2)cc1 [CBK267833],83.5332
17,COc1cccc(C(=O)Nc2cc3c(cc2C(O)c2ccccc2Cl)OCCO3)c1 (stereo not shown) [CBK268004],90.5958
18,CCOC(=O)c1cnc2ccc(F)cc2c1NCCN(C)C [CBK265751],82.0583
19,CSc1nc(C)cc(OCC(=O)Nc2ccc(Cl)cc2)n1 [CBK267525],109.159
20,CNC(=O)NC(=O)C1CCN(CCc2cccs2)CC1 [CBK034960],97.2203
21,CC1(c2ccco2)NC(=O)N(Cc2ncc(-c3cccs3)o2)C1=O (stereo not shown) [CBK305398],41.451

row,SMILES,% of control remaining
1,CN(C)c1ncc(-c2ccc(O)cc2)cc1C(=O)NCc1ccc(F)cc1 [CBK106396],109.752
2,CC(C(=O)N(CCC#N)Cc1cccnc1)n1cnc2ccccc21 (stereo not shown) [CBK304127],71.9983
3,CCOc1ccccc1Nc1c([N+](=O)[O-])nn(-c2ccc(OC)cc2)[n+]1[O-] [CBK268411],102.564
4,Cc1nc(-c2ccccc2)sc1C(=O)C1=C(O)C(=O)N(CCCN2CCOCC2)C1c1cccs1 (stereo not shown) [CBK266601],85.6232
5,Cc1cc(C)c(OCCNC(=O)c2ccccc2Sc2ccccc2C#N)c(C)c1 [CBK266048],105.848
6,Fc1cccc(-c2c[nH]nc2C2CCOCC2)c1 [CBK283465],81.352
7,COc1cc(S(=O)(=O)N2CCC(C(N)=O)CC2)ccc1Br [CBK268766],108.58
8,CC(=O)Nc1ccc(CNc2ncccc2OC(F)F)cc1 [CBK306016],70.7224
9,O=c1[nH]ccn1CCNc1ccc(-c2ccccc2Oc2ccccc2)cn1 [CBK037665],114.603
10,C#C[C@H]1C[N@@]2CC[C@H]1C[C@@H]2CNC(=O)Nc1ccc(C(C)=O)cc1 [CBK288755],88.3184
11,CC(=O)N1CCC2(CC1)CC(O)c1cc(C)c(C)cc1O2 (stereo not shown) [CBK282826],93.3844
12,Cc1ccc(NC(=O)c2ccncc2)c(Br)c1 [CBK058282],116.928
13,COc1ccc(-c2nnc(SCC(=O)O)n2-c2cccc(C(F)(F)F)c2)cc1OC [CBK268347],92.126
14,CSc1cc(C)c(O)c(CO)c1 [CBK020687],67.8052
15,CC(C)n1c(=O)n(CC(=O)NCc2cccs2)c2cccnc21 [CBK283699],53.8499
16,Cn1c(=O)n(C)c2cc(CNC(=O)CC3COCCN3)ccc21 (stereo not shown) [CBK307252],69.4138
17,Cc1[nH]c2ccc(Cl)cc2c1CC(=O)N(C)CCN(C)C [CBK282700],115.146
18,COc1cc(C(=O)N2CCC3(CC2)CC(=O)c2cc(-c4cccc(C)c4)ccc2O3)cc(OC)c1C [CBK170341],107.406
19,CN1CCC(=NNC(=O)C(=O)NCc2ccco2)CC1 [CBK262341],96.576
20,CSc1nnc(-c2ccco2)n1-c1cccc(Cl)c1C [CBK067723],65.1376
21,CC(CN(C)C(=O)c1cn[nH]c1C1CCNC1)Oc1ccc(Cl)c(Cl)c1 (stereo not shown) [CBK304786],82.2915

row,SMILES,% of control remaining
1,O=C(O)Cc1ccc(NC(=S)Nc2cccc(Cl)c2Cl)cc1 [CBK267064],92.2469
2,COc1cc2nnnn2c(-c2ccccc2)n1 [CBK026189],61.3564
3,FC(F)(F)c1cccc(-c2nccnc2NCCCN2CCOCC2)c1 [CBK037288],87.9375
4,CC(c1ccncn1)N(C)C(=O)NCc1cccc(CN(C)C)c1 (stereo not shown) [CBK307667],56.8054
5,CNS(=O)(=O)c1cc(C(=O)NCc2ccccc2)ccc1OC [CBK270277],103.309
6,O=S(=O)(c1ccc(-c2ccccc2)cc1)N1CCCN(Cc2cccnc2N2CCOCC2)CC1 [CBK063127],83.4294
7,COCCn1c(=O)[nH]c2ncc(-c3ccc4c(c3)OCO4)nc21 [CBK064164],86.3177
8,CC1CN(C2CCN(S(=O)(=O)c3cccs3)CC2)C(=O)O1 (stereo not shown) [CBK044072],82.4921
9,CCOc1ccc(NC(=O)C(C)O)c(NC(=O)c2ccccc2Cl)c1 (stereo not shown) [CBK269678],62.6159
10,CC(Sc1nc2cc(Cl)ccc2c(=O)n1CC1CCCO1)C(N)=O (stereo not shown) [CBK305935],105.793
11,CN(CCO)S(=O)(=O)c1ccccc1[N+](=O)[O-] [CBK261457],75.6777
12,C=CCNC(=O)N1CCC2(CC1)OCCc1c2n(C)c2ccccc12 [CBK047354],112.011
13,Cc1cc2ncc3c(n2n1)CC1CCC3N1Cc1ccc(C)o1 (stereo not shown) [CBK284412],96.9528
14,O=C(c1cccs1)N1Cc2ccccc2OC2(CCOCC2)C1 [CBK284942],97.9068
15,CCS(=O)(=O)c1ccc(O)c(NS(=O)(=O)c2cc(C(=O)O)ccc2Cl)c1 [CBK297531],95.2287
16,CCOC(=O)N1CCN(C2CCCN(Cc3c(C)nn(C)c3Cl)C2)CC1 (stereo not shown) [CBK306853],33.3396
17,O=C(CCCc1ccccc1)Nc1scc2c(=O)oc3ccccc3c12 [CBK265435],106.674
18,Oc1ccc(/C=N/Nc2nnn[nH]2)c(O)c1 [CBK260972],102.973
19,Cc1cc(C)c2c(N)nc(N)nc2n1 [CBK025968],95.7849
